Experimental data taken from PubChem BioAssay AID463173 (ICCB-Longwood Screening Facility, Harvard Medical School, 2010).
The campaign covered roughly 52,000 compounds. About 1,700 (3.3%) were called active. No stated cut-off is given here; in the data, active means survival mostly below about 52% (no sharp cut-off); inactive means mostly above about 56%. Some of the results follow.

Each molecule was assayed on Wild type (assay: S. aureus survival, RN4220 and DeltatarO strains – OD600, teichoic acid synthesis inhibitors, primary screen (AID 463173)). Conditions: S. aureus RN4220 wild type/DeltatarO growth, OD600, 18 h, active compounds read low, screened at 18.75 µg/mL (by protocol).

SMILES | survival
CCN(C(=O)Cn1c(=O)oc2cc(S(=O)(=O)N3CCCCC3)ccc21)c1ccccc1 | inactive: 79%
CCc1cccc(NC(=O)CCc2c(C)nc3c(-c4ccccc4)c(C)nn3c2C)c1 | inactive: 87%
CN1CCN(Cc2c(O)ccc3cc(-c4ccc(Cl)cc4)c(=O)oc23)CC1 | inactive: 143%
COc1cc(OC)c(NC(=O)N2CCC(CN3CCOCC3)CC2)cc1Cl | inactive: 89%
Cc1cc(C)cc(N2CCn3c2nc2c3c(=O)n(C/C=C/c3ccccc3)c(=O)n2C)c1 | inactive: 98%
CCOc1cc(CNC(=O)C2CCN(c3nc4ccccc4[nH]3)CC2)cc(OCC)c1OCC | active: -3%
COc1cccc(CC(=O)Nc2ccc(-c3nc4ccccc4s3)cc2Cl)c1 | inactive: 73%
COc1cccc(CNC(=O)c2c(C)oc3ncnc(N4CCOCC4)c23)c1 | inactive: 76%
COc1ccc(N2CCN(C(=O)C3Cc4ccccc4N3C(C)=O)CC2)cc1 (stereo not given) | inactive: 85%
Cc1c(C)c2cc3c(c(C)c2oc1=O)OCN(CCc1ccccc1)C3 | inactive: 93%
Cc1ccc(C)c(NC(=O)CCOc2ccccc2)c1 | inactive: 94%
COc1cccc(Nc2cc(C)nc3ccccc23)c1 | inactive: 125%
Cc1c(Cl)cccc1NC(=O)CSc1ccc(-c2ccccn2)nn1 | inactive: 113%
Nc1cccc(NC(=O)CCC(=O)NCc2ccco2)c1 | inactive: 99%
Cc1ccc2nc(-c3ccc(F)cc3)c(NC(C)(C)CC(C)(C)C)n2c1 | active: 14%
Cc1ccc2cccc(NC(=O)c3cccc4c(Br)cccc34)c2n1 | inactive: 134%
COc1cccc(CNS(=O)(=O)c2ccc3c(c2)CC(C)N3C(=O)C2CCC2)c1 (stereo not given) | inactive: 85%
O=C(Cn1c(=O)n(-c2ccc(Cl)cc2)c(=O)c2c3c(sc21)CCCCC3)Nc1cccc(Cl)c1 | inactive: 96%
O=C(NCc1cccc(Cl)c1)c1cc2c(s1)-c1ccccc1SC2 | inactive: 62%
CN(C)S(=O)(=O)c1ccc(/C(O)=C2\C(=O)C(=O)N(Cc3cccnc3)C2c2cccnc2)cc1 (stereo not given) | inactive: 105%
COc1ccc(C)cc1NC(=O)C(=O)NCC(c1cccnc1)N1CCN(c2ccccc2F)CC1 (stereo not given) | inactive: 79%
CCOC(=O)N1CCN(C(=O)Cc2cccc3ccccc23)CC1 | inactive: 110%
Cc1cc(C)c2nc(N3CCCC(C(=O)NCc4ccccc4F)C3)sc2c1 (stereo not given) | inactive: 89%
Cc1ccc(C(=O)NC2CC(C)(C)NC(C)(C)C2)cc1 | inactive: 114%
COc1ccc(N2CCN(C(=O)c3ccc4c(c3)N(Cc3cccc(Cl)c3)C(=O)c3ccccc3S4(=O)=O)CC2)cc1 | inactive: 82%
